Lines with a small IC50 respond at low doses; a limit (>, <) means that the fit lies beyond the doses tested. The AUC spans the tested range (256-fold, ending at the top dose) of the same fit; values near 1 show little effect. For some assays here: The top dose, if marked as inferred, is not printed in the source and was worked back from the curve model. For some assays here: Drugs with an entry number were screened twice under separate entries, and the two screens often disagree.
What was measured:
Assay in all cases: Viability of human cancer cell lines after 72 h of drug (GDSC screen)
[1] = compound: COc1cc(O)c2c(c1)/C=C/C[C@H](O)[C@H](O)C(=O)/C=C\C[C@H](C)OC2=O [(5Z)-7-Oxozeaenol]; conditions: top dose 10 µM; top dose inferred
Protocol: (§1)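 Human cancer cell lines in 384-well plates, medium with 10% serum, drug for 72 h over a 256-fold dose range (nine 2-fold or five 4-fold steps up to the top dose). Adherent lines were fixed and stained with the nucleic acid dye Syto60, suspension lines read with resazurin; signal relative to control wells, capped at 0 and 100%. One two-parameter sigmoid per drug and line, fitted in a mixed model over all curves with the slope shared within a line.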

[2] = compound: COc1cc(N2CCC(O)CC2)ccc1Nc1cc(Nc2ccccc2S(=O)(=O)C(C)C)c2cc[nH]c2n1 [MPS-1-IN-1]; conditions: top dose 20 µM; top dose inferred
Protocol: as §1

[3] = compound: COc1nc(C)cnc1NS(=O)(=O)c1cccnc1-c1ccc(-c2nnco2)cc1 [Zibotentan]; conditions: top dose 20 µM; top dose inferred
Protocol: as §1

[4] = compound: C[C@]1(c2nc3c(C(N)=O)cccc3[nH]2)CCCN1 [ABT-888]; conditions: top dose 5 µM; top dose inferred
Protocol: as §1

[5] = compound: Cc1ccc(F)c(NC(=O)Nc2ccc(-c3cccc4[nH]nc(N)c34)cc2)c1 [ABT-869]; conditions: top dose 1.024 µM; top dose inferred
Protocol: as §1

[6] = compound: COc1cc2ncnc(-n3nc(-c4ccccn4)nc3N)c2cc1OC [CP466722]; conditions: top dose 16 µM; top dose inferred
Protocol: as §1

[7] = compound: CCn1c(-c2nonc2N)nc2cnc(Oc3cccc(NC(=O)c4ccc(OCCN5CCOCC5)cc4)c3)cc21 [GSK269962A]; conditions: top dose inferred
Protocol: as §1

[8] = compound: C=CC(=O)Nc1cc(-n2c(=O)ccc3cnc4ccc(-c5cn[nH]c5)cc4c32)ccc1C [QL-X-138]; conditions: top dose 10.24 µM; top dose inferred
Protocol: as §1

[9] = compound: Cc1ccc(-c2c(C(=O)CCl)n(CCCO)c3ncnc(N)c23)cc1 [CMK]; conditions: top dose 4 µM; top dose inferred
Protocol: as §1

[10] = compound: Cc1cnc(-c2cnc(NCCNc3ccc(C#N)cn3)nc2-c2ccc(Cl)cc2Cl)[nH]1 [CHIR-99021]
Protocol: as §1

[11] = compound: Nc1ccn([C@@H]2O[C@H](CO)[C@@H](O)[C@@H]2O)c(=O)n1 [Cytarabine]; conditions: top dose 2 µM
Protocol: as §1

[12] = compound: O=c1cc(-c2cccc3c2Sc2ccccc2S3)oc(N2CCOCC2)c1 [KU-55933]; conditions: top dose 10 µM
Protocol: as §1

[13] = compound: C/C=C(/C)C(=O)O[C@H]1C(C)=C2[C@H]([C@@H]1OC(=O)CCCCCCC)[C@@](C)(OC(C)=O)C[C@H](OC(=O)CCC)[C@@]1(O)[C@H]2OC(=O)[C@@]1(C)O [Thapsigargin]; conditions: top dose 0.512 µM; top dose inferred
Protocol: as §1

[14] = top dose 2.5 µM, screen: GDSC drug entry 127
[15] = top dose 5 µM, screen: GDSC drug entry 1192
[16] = top dose 2.56 µM, screen: GDSC drug entry 154
[17] = top dose 10 µM, screen: GDSC drug entry 1241, top dose inferred

Row | Cell Line | AUC [1] | IC50 [1] [µM] | AUC [2] | IC50 [2] [µM] | AUC [3] | IC50 [3] [µM] | AUC [4] | IC50 [4] [µM] | AUC [5] | IC50 [5] [µM] | AUC [6] | IC50 [6] [µM] | AUC [7, 14] | IC50 [7, 14] [µM] | AUC [7, 15] | IC50 [7, 15] [µM] | AUC [8] | IC50 [8] [µM] | AUC [9] | IC50 [9] [µM] | AUC [10, 16] | IC50 [10, 16] [µM] | AUC [10, 17] | IC50 [10, 17] [µM] | AUC [11] | IC50 [11] [µM] | AUC [12] | IC50 [12] [µM] | AUC [13] | IC50 [13] [µM]
1 | LU-134-A (small cell lung carcinoma, suspension) | 0.908 | > 10 | 0.941 | > 20 | 0.985 | > 20 | 0.987 | > 5 | 0.974 | > 1.02 | 0.935 | > 16 | 0.944 | > 2.5 | 0.938 | > 5 | 0.728 | 2.99 | 0.913 | > 4 | 0.96 | > 2.56 | 0.981 | > 10 | 0.947 | > 2 | 0.984 | > 10 | 0.663 | 
2 | LU-165 (small cell lung carcinoma, suspension) | 0.977 | > 10 | 0.97 | > 20 | 0.988 | > 20 | 0.985 | > 5 | 0.988 | > 1.02 | 0.891 | > 16 | 0.959 | > 2.5 | 0.92 | > 5 | 0.759 | 3.99 | 0.982 | > 4 | 0.986 | > 2.56 | 0.987 | > 10 | 0.988 | > 2 | 0.984 | > 10 | 0.841 | 0.422
3 | MC116 (B-cell lymphoma, suspension) | 0.878 | 5.18 | 0.915 | 13 | 0.998 | > 20 | 0.999 | > 5 | 0.999 | > 1.02 | 0.822 | 5.98 | 0.98 | > 2.5 | 0.877 | 2.57 | 0.912 | 6.54 | 0.728 | 0.887 | 0.962 | 2.4 | 0.961 | 9.29 | 0.954 | 1.74 | 0.999 | > 10 | 0.139 | 0.00427
4 | MC-CAR (haematopoietic neoplasm, suspension) | 0.565 | 0.924 | 0.829 | 10.7 | 0.988 | > 20 | 0.989 | > 5 | 0.989 | > 1.02 | 0.56 | 1.43 | 0.989 | > 2.5 | 0.863 | 3.58 | 0.55 | 0.86 | 0.825 | 2.06 | 0.975 | > 2.56 | 0.907 | > 10 | 0.355 | 0.0521 | 0.916 | > 10 | 0.474 | 0.0275
5 | MDST8 (large intestine, adherent) | 0.128 | 0.0419 | 0.83 | 12.4 | 0.975 | > 20 | 0.972 | > 5 | 0.986 | > 1.02 | 0.972 | > 16 | 0.98 | > 2.5 | 0.943 | > 5 | 0.855 | 8.03 | 0.949 | > 4 | 0.986 | > 2.56 | 0.949 | > 10 | 0.898 | > 2 | 0.976 | > 10 | 0.856 | 0.408
